The whole screen tested about 150,000 compounds, of which about 540 (0.36%) showed an effect of 50% or more. This is one part of the list.
These compounds were tested on Plasmodium falciparum (assay: Primary screen in NF54 nanoGlo assay, in single point, at 2uM, 72h; a lower Z score goes with more inhibition). Settings: timepoint 72 hour.
Format: functional, Erythrocyte

SMILES	% Inhibition	Z score
Cc1cccc(N2CCN(C(=O)c3cccc(N4C(=O)C5CC=CC(C)C5C4=O)c3)CC2)c1C (stereo unspecified)	-5%	0.62
Cn1cnc2c1CCN(CCCOc1ccc3c(c1)OCO3)C2	-1%	0.11
CCCOc1ccccc1CCNC(=O)[C@@H]1C=CCN1	-22%	2.04
O=C(N[C@H]1COC[C@H]1NC(=O)c1cccnc1)c1cccnc1	0%	0.03
CN(C)CCN(Cc1ccsc1)C(=O)c1cc2cc(F)ccc2[nH]1	-5%	0.68
CC(Oc1ccc(C(F)(F)F)cc1)C(=O)NC(C)c1ncon1 (stereo unspecified)	-2%	0.18
Cc1cccc(Cn2cnc3ccncc3c2=O)n1	1%	-0.22
COCc1nc(C2CC2)nc(N2CCN(C(=O)c3ccccc3Cl)CC2)c1Cc1cccc(C)c1	-3%	0.31
COc1ccnc(C(=O)N2CCCN(S(=O)(=O)N3CCCC3)CC2)c1	-9%	1.86
Cc1ccc(-n2cnnc2)c(C(=O)N2CC(C)S(=O)(=O)C(C)C2)c1 (stereo unspecified)	-1%	0.27
O=C1NC[C@H]2O[C@H](CCOc3cc(-c4ccccc4)ccc3C(=O)N3CCN(Cc4ccc(C(F)(F)F)cc4)C[C@@H]13)CC[C@@H]2O	17%	-1.96
O[C@H]1CCCC[C@@H]1N1CCN(CCCc2ccco2)CC1	-10%	1.96
C=C[C@H]1OCC[C@@H]1C(=O)NC(C)(C)C(O)C(F)(F)F (stereo partly specified)	-13%	1.53
CC(C)NC(=NC1CC1)NCc1cc2ccccc2o1	3%	-0.37
CC(C)C1CN(C(=O)c2cnc(C3OCCO3)s2)C1C(C)C (stereo unspecified)	5%	-0.88
CCn1cc(Br)c(=O)c(NC(=O)[C@@H](C)C(C)(C)C)c1	3%	-0.43
CCc1nocc1CN(C)C(=O)[C@@H]1CCCN1CC(F)(F)F	0%	0.05
COc1ccc(NC(=O)[C@H]2CC(=O)N(c3n[nH]c4cccc(F)c34)C2)c(OC)c1	-2%	0.24
Cc1nc(CNc2ccccc2NC(=O)Cc2cccs2)cs1	-17%	1.71
Cc1ccc(C(=O)NC[C@H]2CCN(Cc3cccnc3)C2)cc1Cl	7%	-0.93
CC(=O)c1ccc(N2CCN(C(=O)NC3CCC(O)CC3)CC2)cc1 (stereo unspecified)	-9%	1.45
COc1cccc(-c2n[nH]c3c2CN(C(=O)Cc2cnc4ccccn24)CC3)c1	-15%	2.14
CC1=CC(C)[C@@H]2COC(c3ccc(N(C)C)cc3)[C@H]1C2C (stereo partly specified)	2%	-0.32
